Laboratory results taken from US20200231694A1, “PHARMACEUTICAL COMBINATIONS COMPRISING AN ANTI-BST-1 ANTIBODY AND A CYTIDINE ANALOGUE” (BERLIN-CHEMIE AG, priority 2017, published 2020).

Legend:
[1] = biological target: T1, cell surface BST1 protein (Homo sapiens, UniProt Q10588); test: Flow cytometry binding of anti-BST1 antibodies to BST1-expressing cells; conditions: A549 and H226 cells
T1 construct: the antibodies were incubated with the BST1-expressing cells, A549 and H226, from human lung adenocarcinoma and human lung squamous carcinoma; endogenous in cells; host or cells: A549 (human lung adenocarcinoma) and H226 (human lung squamous carcinoma)
T1 sequence (Q10588 33-293): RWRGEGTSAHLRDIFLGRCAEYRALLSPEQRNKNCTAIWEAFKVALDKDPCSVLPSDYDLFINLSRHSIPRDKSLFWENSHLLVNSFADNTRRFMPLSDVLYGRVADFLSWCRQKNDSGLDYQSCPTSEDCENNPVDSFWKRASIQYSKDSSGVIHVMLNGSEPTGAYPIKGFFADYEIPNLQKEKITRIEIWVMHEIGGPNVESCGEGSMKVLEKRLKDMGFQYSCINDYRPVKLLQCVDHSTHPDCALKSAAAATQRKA
Method: (§1) The specificity of antibodies against the BST1 selected in Example 2 was tested by flow cytometry. To test the ability of the antibodies to bind to the cell surface BST1 protein, the antibodies were incubated with the BST1-expressing cells, A549 and H226, from human lung adenocarcinoma and human lung squamous carcinoma, respectively. Cells were washed in FACS buffer (DPBS, 2% FBS), centrifuged and resuspended in 100 μl of the diluted primary BST1 antibody (also diluted in FACS buffer). The antibody-A549 complex was incubated on ice for 60 min and then washed twice with FACS buffer as described above. The cell-antibody pellet was resuspended in 100 μl of the diluted secondary antibody (also diluted in FACS buffer) and incubated on ice for 60 min on ice. The pellet was washed as before and resuspended in 200 μl FACS buffer. The samples were loaded onto the BD FACScanto II flow sytometer and the data analyzed using the BD FACSdiva software.

A549 cells = test: MabZAP internalization assay, A549 cells; assay type: cell-based; conditions: compared to anti-human IgG isotype control
Method: (§2) Internalization of BST1_A1 and BST1_A2 by H226 and A549 were investigated using a MabZap assay. […] (Advanced Targeting System, San Diego, Calif., IT-22-100). First, BST1 Fab was bound to the surface of the cells. Then, the MabZAP antibodies were bound to the primary antibodies. Next, the MabZAP complex was internalized by the cells.
(§3) The MabZAP assay was conducted as follows. Each of the cells was seeded at a density of 5×10^3 cells per well. The anti-BST1 monoclonal antibody or an isotype control human IgG was serially diluted then added to the cells and incubated for 15 min at 25° C. The MabZAP was then added and incubated for 72 hr at 37° C. Cell viability in the plates was detected by CellTiter-Glo® Luminescent Cell Viability Assay kit (Promega, G7571) and the plates were read and analysed using Promega Glomax. Cell death was proportional to the concentration of anti-BST1 monoclonal antibodies.

[2] = tested on: BST1-expressing U937 cells; test: Antibody-dependent cellular cytotoxicity (LDH release), U937 cells; assay type: cell-based; conditions: for eliciting ADCC: BST1-expressing U937 cells, with effector cells; for killing (ADCC): U937 cells, 1 nmol/L antibody
Method: (§4) Firstly 25 μl of parental and Non-Fucosylated anti-BST1 antibodies (BST1_A2 and BST1_A2 NF) at concentrations ranging from 10 nm/L to 0.1 nm/L were added to separate wells of a v bottom 96 well plate along with 50 μl of BST1-expressing A549 and U937 cells. 25 μl of Effector cells was then added to the wells to yield final effector: target (E:T) ratio of 10:1 and 25:1. The plate was then gently spun at 1000 rpm for 2 minutes, afterwhich it was incubated for 4 hrs in 37° C., 5% CO2 incubator. At 3 hrs post incubation, 10 μl of lysis solution was added to each of the wells containing BST1-expressing cells alone to measure maximum LDH release, and one set of wells containing media alone for volume correction control.
(§5) After the incubation, the cells were spun gently at 1000 rpm for 2 minutes, afterwhich 50 μl of supernatant was transferred to a flat bottom 96 well plate. Using the CytoTox 96® Non-Radioactive Cytotoxicity Assay available from Promega (Cat #: G1780), kit components were reconstituted according to manufacturer's specifications and 50 μl of the substrate mix was then added to each well. The plate was then covered and left to incubate for 30 minutes at 25° C. protected from light. Following this, 50 μl of Stop Solution was added to each well and the absorbance was recorded at 490 nm using the varioskan plate reader.

H226 cells = test: MabZAP internalization assay, H226 cells; assay type: cell-based; conditions: compared to anti-human IgG isotype control
Method: as §2, §3

[3] = tested on: BST1-expressing A549 cells; test: Antibody-dependent cellular cytotoxicity (LDH release), A549 cells; assay type: cell-based, human; conditions: for eliciting ADCC: BST1-expressing A549 cells, with effector cells
Method: as §4, §5

[4] = tested on: lymphoblasts from patients with AML; test: Flow cytometry binding to AML blasts from patients; set-up: species or system human; conditions: blood from 20 AML patients
Method: as §1
The ability of BST_A2 to bind to lymphoblasts from patients with AML was tested by Flow Cytometry Analysis. Blood was taken from 20 AML patients.

B1: BST1_A2: anti-BST1 monoclonal antibody, VH SEQ ID NO: 2, VK SEQ ID NO: 4; heavy/light chain SEQ ID NOs: 74 and 76 (antibody)
heavy: QVQLVQSGAEVKKPGASVKVSCKASGYSFIEYTINWVRQAPGQGLEWIGNIDPYYGTTYYNQMFTGRATLTVDTSISTAYMELSRLRSDDTAVYYCARGSAWFPYWGQGTLVTVSS[sequence of human IgG1 constant region not given]
light: DIQMTQSPSSLSASVGDRVTITCSASSSVTYMYWYQQKPGKAPKLLIYDTSNLASGVPSRFSGSGSGTDYTLTISSLQPEDFATYYCQQWSNYPLTFGQGTKVEIKRTVAAPSVFIFPPSDEQLKSGTASVVCLLNNFYPREAKVQWKVDNALQSGNSQESVTEQDSKDSTYSLSSTLTLSKADYEKHKVYACEVTHQGLSSPVTKSFNRGEC
modifications: Humanized heavy chain; Humanized light chain
[1]
  binding to cell-surface human BST1: bound effectively
A549 cells
  internalization (MabZAP): efficiently internalized
[2]
  eliciting ADCC: capable of eliciting ADCC
  killing (ADCC): approximately 20%
H226 cells
  internalization (MabZAP): efficiently internalized
[3]
  eliciting ADCC: capable of eliciting ADCC
[4]
  AML patients whose AML blasts were bound: approx. 80%

B2: BST1_A2 NF: Non-Fucosylated anti-BST1 antibody derived from parental BST1_A2 (antibody)
heavy: QVQLVQSGAEVKKPGASVKVSCKASGYSFIEYTINWVRQAPGQGLEWIGNIDPYYGTTYYNQMFTGRATLTVDTSISTAYMELSRLRSDDTAVYYCARGSAWFPYWGQGTLVTVSS[sequence of human IgG1 constant region not given]
light: DIQMTQSPSSLSASVGDRVTITCSASSSVTYMYWYQQKPGKAPKLLIYDTSNLASGVPSRFSGSGSGTDYTLTISSLQPEDFATYYCQQWSNYPLTFGQGTKVEIKRTVAAPSVFIFPPSDEQLKSGTASVVCLLNNFYPREAKVQWKVDNALQSGNSQESVTEQDSKDSTYSLSSTLTLSKADYEKHKVYACEVTHQGLSSPVTKSFNRGEC
[2]
  eliciting ADCC: capable of eliciting ADCC
  killing (ADCC): approximately 45%
[3]; A549 cells, 10 nmol/L antibody
  killing (ADCC): approximately 45%
[3]
  eliciting ADCC: capable of eliciting ADCC
